Experimental data published in PubChem BioAssay AID1508623 (National Center for Advancing Translational Sciences (NCATS), 2021).
Out of some 48,000 compounds screened, about 450 (0.94%) were called active. About 19% were inconclusive and are not listed. Calls come from the whole dose curve; as a rule, active = well fitted inhibition curve with a large enough effect; inconclusive = small, poorly fitted or top-dose-only effect; inactive = no such curve, though single readings can be large or run the other way. Some of the results follow.

assay: Primary qHTS for Identification of Small Molecule Inhibitors of Huntingtin Promoter Activity; conditions: HEK293 HTT promoter firefly luciferase reporter (activity 0% = vehicle and -100% = no light), 24 h; series mostly up to 57.5 µM; activity change, negative = inhibition: at the top concentration; note: nearly all actives have a fitted effect of over 50% in size
How it was run: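 HEK293 cells carrying firefly luciferase reporters were seeded at 2,500 per well in Opti-MEM and cultured for 24 h. They were then treated with compounds at up to 57.5 uM final for 24 h at 37 degrees C before Dual-Glo luminescence readout.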
Potency is the fitted concentration of half-maximal effect.

| SMILES | activity change, negative = inhibition | Potency |
| --- | --- | --- |
| CCOC(=O)c1c(-c2ccccc2)oc2ccc(OCc3cccc(Br)c3)cc12 | inactive: -18.2% |  |
| O=C(Cn1cc(C(=O)c2cccs2)c2ccccc21)Nc1ccc(Br)cc1 | inactive: -6.06% |  |
| O=C1CCSC2(C(=O)N(Cc3ccc(F)cc3)c3ccccc32)N1c1cccc(F)c1 (stereo not drawn) | inactive: -29.1% |  |
| CCN1C(=O)c2ccccc2S(=O)c2ccc(C(=O)NCc3ccc(Cl)cc3)cc21 (stereo not drawn) | inactive: -41.3% |  |
| CCN(c1cccc(C)c1)S(=O)(=O)c1c(C)nc2sc(C)cn2c1=O | inactive: -7.73% |  |
| COc1cccc(C(c2sc3nc(-c4ccco4)nn3c2O)N2CCN(C)CC2)c1 (stereo not drawn) | inactive: 11.5% |  |
| COc1ccc(CNC(=O)CN(C)S(=O)(=O)c2ccc3c(c2)c(=O)n(C)c(=O)n3C)cc1 | inactive: -3.91% |  |
| COc1ccc(C(=O)Oc2cc(-c3ccc(OC)c(OC)c3)cc(=O)c3c(C)oc(C)c23)cc1 | inactive: -25.9% |  |
| C1N2CN3CN1CN(C2)C3 | inactive: 0.881% |  |
| COc1ccc(-c2cc(C(=O)NCCc3ccccc3)c3c(-c4ccc(Cl)cc4)[nH]nc3n2)cc1 | inactive: -9.56% |  |
| COc1ccc(CCNC(=O)CS(=O)(=O)Cc2nc(-c3cccc(Cl)c3)oc2C)cc1OC | inactive: -14.6% |  |
| COc1ccc(CNC(=O)c2cccn2-c2nnc(N3CCCCC3)s2)c(OC)c1 | inactive: -22.6% |  |
| Cc1ccc(CSc2nc3ccncc3n2Cc2nc(-c3ccccc3C)oc2C)cc1 | inactive: -4.88% |  |
| O=C(Cn1c(=O)n(Cc2ccc(C(=O)NCc3ccc4c(c3)OCO4)cc2)c(=O)c2ccccc21)Nc1ccccc1F | inactive: -5.44% |  |
| CCCNC(=O)c1c(NC(=O)c2ccccc2)sc2c1CCC(C(C)(C)C)C2 (stereo not drawn) | inactive: -7.33% |  |
| COc1ccc(-n2ccn(CC(=O)Nc3ccc(C)cc3C)c(=O)c2=O)cc1 | inactive: -9.21% |  |
| CCCc1nnc(NC(=O)C(CC)Sc2nnc3c4ccccc4n(C)c3n2)s1 (stereo not drawn) | inactive: -22.7% |  |
| COc1ccc(CNC(=O)c2sc3nc4n(c(=O)c3c2C)CCC4)cc1 | inactive: 14.5% |  |
| COc1ccc2c(c1)c1c(c(=O)n(-c3cccc(C)c3)c(=O)n1CC(=O)NCc1ccc(C)cc1)n2C | inactive: 2.71% |  |
| CC(C)(C)c1ccc(C(=O)NC(Cc2c[nH]c3ccccc23)C(=O)OCC(=O)c2ccc(Br)cc2)cc1 (stereo not drawn) | inactive: -17.3% |  |
| Nc1ncnc2c1ncn2[C@@H]1O[C@H](CO)C[C@@H]1O | inactive: -29.9% |  |
| Cc1ccc(OCC(=O)Nc2ccc3nn(-c4ccc(C)cc4)nc3c2)cc1 | inactive: 24.3% |  |
| Cc1cccc(CCNC(=O)CCS(=O)(=O)c2cc3c(cc2C)NC(=O)CO3)c1 | inactive: -7.38% |  |
| Cc1nn(CCC(=O)Nc2ccccc2Br)c(=O)c2nn(-c3ccccc3)c(C)c12 | inactive: -8.49% |  |
| CCOC(=O)N1CCC2(CC1)OC(=O)C(C)=C2C(=O)NCc1ccccc1OC | inactive: -7.63% |  |

| SMILES | activity change, negative = inhibition | Potency |
| --- | --- | --- |
| COc1ccccc1N1CCN(C(=O)CNS(=O)(=O)c2ccc(Br)s2)CC1 | inactive: -39.1% |  |
| Cc1cc(Cl)ccc1OCC(=O)N(Cc1ccc(N(C)C)cc1)C1CCS(=O)(=O)C1 (stereo not drawn) | inactive: -37.2% |  |
| CCOC(=O)c1cc(-c2ccc(C)cc2)n(CC(=O)Nc2ccc(OC)cc2OC)c1C | inactive: 4.19% |  |
| Cc1ccc(NC(=O)CSc2nccn2C2CCCC2)cc1Cl | inactive: -6.12% |  |
| CCN1CCN(C(c2ccc(F)cc2)c2sc3nc(-c4ccco4)nn3c2O)CC1 (stereo not drawn) | inactive: -3.73% |  |
| Cc1ccc(S(=O)(=O)CCC(=O)N2CCN(c3nc4c(C)c(C)ccc4s3)CC2)cc1 | inactive: 0% |  |
| COc1ccc(N2CCN(C(c3ccc(F)cc3)c3sc4nc(-c5ccco5)nn4c3O)CC2)cc1 (stereo not drawn) | inactive: -3.57% |  |
| Cc1ccc(OCC(=O)Nc2nonc2-c2ccc(Br)cc2)cc1 | inactive: -23.2% |  |
| CCCCCN(C)CCC(O)(P(=O)(O)O)P(=O)(O)O | inactive: -7.04% |  |
| CC(=O)N1CCCC1c1nc2ccccc2n1Cc1ccccc1F (stereo not drawn) | inactive: -1.89% |  |
| CC(C)OCCCNC(=O)CN1C(=O)c2ccccc2Sc2ncccc21 | inactive: -8.41% |  |
| O=C(Nc1cccc2c1CCCC2)N1CCOc2ccc(Cl)cc21 | inactive: -6.17% |  |
| CCCC(=O)Nc1ccc2nc(SCC(=O)N3CCOCC3)sc2c1 | inactive: 3.05% |  |
| Cc1oc2ncnc(N3CCOCC3)c2c1C(=O)NCc1ccc(Cl)cc1 | inactive: -19.6% |  |
| N#C/C(=C\c1ccc(-c2cccc(Cl)c2)o1)C(=O)Nc1cccc(C(F)(F)F)c1 | inactive: -16.2% |  |
| Fc1ccc(N2CCN(c3ncnc4[nH]ncc34)CC2)cc1 | inactive: -22.5% |  |
| CCCn1cnc2cc(NCc3ccc(OC)cc3OC)ccc21 | inactive: 2.26% |  |
| Cc1cc(=O)oc2cc(OCC(=O)Nc3ccc(O)c(C(=O)O)c3)ccc12 | inactive: -6.06% |  |
| CCOc1ccc(CC(=O)N2CCc3cc(OC)c(OC)cc3C2COc2ccc3c(C)cc(=O)oc3c2)cc1 (stereo not drawn) | inactive: -16.8% |  |
| Cc1ccc(CNC(=O)CS(=O)(=O)Cc2nc(-c3ccccc3C)oc2C)cc1 | inactive: -14.6% |  |
| CCCCCn1c(=O)[nH]c2cc(C(=O)NCc3ccccc3)ccc2c1=O | inactive: -4.64% |  |
| COc1ccc(CNC(=O)Cc2c(C)c3c(cc(C)c4c(C)c(C)oc43)oc2=O)cc1OC | inactive: -0.27% |  |
| CCN(CC)S(=O)(=O)c1ccc2c(c1)N(CC(=O)NCCCN1CCN(c3cc(Cl)ccc3C)CC1)C(=O)CO2 | inactive: -30% |  |
| Cc1cccc(Cn2c(SCc3ccc(C(=O)NC4CCCC4)cc3)nc3ccncc32)c1 | inactive: -26.5% |  |
| Cc1ccc(NC(=O)c2sc(-n3nc(C)c(Cc4ccc5c(c4)OCO5)c3C)nc2C)cc1Cl | inactive: -0.699% |  |

| SMILES | activity change, negative = inhibition | Potency |
| --- | --- | --- |
| Cc1cccc(-c2noc(CNC(=O)c3ccccc3Br)n2)c1 | inactive: 2.92% |  |
| Cc1cccc(NC(=O)C2CCN(c3cnccn3)CC2)c1 | inactive: -6.49% |  |
| CC1CCN(S(=O)(=O)c2ccc3c(c2)oc(=O)n3CC(=O)O)CC1 | inactive: -2.26% |  |
| COc1ccc(CC(=O)Nc2ccc3nc(N4CCCCC4)cc(C)c3c2)cc1 | inactive: -23.6% |  |
| CCOC(=O)c1c(NC(C)=O)c2c3c(sc2n1Cc1nc(-c2ccccc2Cl)oc1C)CCCC3 | inactive: -26% |  |
| Cc1ccc(CNC(=O)c2cc3c(s2)-c2c(C)cccc2OC3)cc1 | inactive: -16.2% |  |
| Cc1ncc([N+](=O)[O-])n1C | inactive: 7.78% |  |
| COc1ccc2c(c1)c1c(c(=O)n(Cc3ccccc3)c(=O)n1CC(=O)NCc1ccccc1)n2C | inactive: -13% |  |
| COc1ccc(CNCc2c(C(=O)O)n(Cc3ccc(F)cc3)c3cc(C)ccc23)cc1OC | inactive: -22.9% |  |
| CCOCCCNC(=O)c1ccc(-n2c(-c3ccccc3)cc3c2CCCCC3)cc1 | inactive: 12.6% |  |
| CCC(=O)N1CCc2cc(Br)cc(S(=O)(=O)CCC(=O)Nc3cccc(C)c3C)c21 | inactive: -5.19% |  |
| COc1ccccc1NC(=O)c1sc2nc3c(cc2c1N)CN(Cc1ccccc1)CC3 | inactive: -25.3% |  |
| COCCn1c(C)cc(O)c(C(c2ccc(F)cc2)N2CCN(c3ccccc3)CC2)c1=O (stereo not drawn) | inactive: -2.92% |  |
| CCOC(=O)c1c(C)c(-c2ccccc2)n(CC(=O)NCCc2cccc(C)c2)c1C | inactive: 1.04% |  |
| O=C(CSc1nc(=O)[nH]c2c1CCCC2)NCc1ccc(F)cc1 | inactive: -13.5% |  |
| N#Cc1ccccc1Cn1cnc2nc3c(cc2c1=O)CCCC3 | inactive: -8.48% |  |
| CCc1cc(=O)[nH]c(SCc2nc(-c3ccccc3)no2)n1 | inactive: -32.3% |  |
| Cc1cccc(CC(=O)NCc2nc3cccnc3n2Cc2ccc(F)cc2)c1 | inactive: -6.76% |  |
| CCCOc1ccc(C(=O)Nc2ccc(NC(=O)c3ccccc3)c(C)c2)cc1 | inactive: -6.01% |  |
| Cc1nnc2c(N3CCN(c4ccccc4F)CC3)nc3ccc(C(=O)c4ccccc4)cc3n12 | inactive: 13.8% |  |
| CCOC(=O)C1CCC(CN(Cc2ccc(OC)cc2)S(=O)(=O)c2ccc(F)c(C(=O)Nc3c(C)cccc3C)c2)CC1 (stereo not drawn) | inactive: 1.89% |  |
| CS(=O)(=O)Nc1ccccc1C(=O)OCc1cc(=O)n2nc(C3CCCCC3)sc2n1 | inactive: -4.1% |  |
| Cc1cc(F)ccc1NC(=O)CS(=O)(=O)c1cccc2nsnc12 | inactive: 7.5% |  |
| Cc1ccccc1Nc1c(-c2ccccc2)nc2cccc(C)n12 | inactive: -15.1% |  |
| O=C(Cn1cnc2c(nc3n2CCCCC3)c1=O)Nc1ccc(F)c(Cl)c1 | inactive: -23.2% |  |

| SMILES | activity change, negative = inhibition | Potency |
| --- | --- | --- |
| COc1ccc(CNc2nc(SCc3ccccc3Cl)nc3ccccc23)cc1 | inactive: -27.3% |  |
| CCOC(=O)C(C#N)=C(c1ccccc1)c1ccccc1 | inactive: -13.5% |  |
| COc1ccc(N2CC(NC(=O)C3CCCC3)CC2=O)cc1OC (stereo not drawn) | inactive: -3.33% |  |
| Cn1nc(C(=O)N2CCN(c3ccc(F)cc3)CC2)c2c1-c1ccccc1SC2 | inactive: -3% |  |
| COc1ccc(CCNC(=O)c2cn(C)c3ccc(S(=O)(=O)N(C)C)cc3c2=O)cc1OC | inactive: 2.78% |  |
| CC(C)c1ccc(NC(=O)Cn2nnc(C(=O)NCc3ccc(Cl)cc3)c2N)cc1 | inactive: -1.27% |  |
| CCN(C(=O)c1cn(CC(C)C)c(=O)c2cc(OC)c(OC)cc12)c1cc(OC)ccc1OC | inactive: -12.8% |  |
| COc1ccc2c(c1)sc1ncc(C(=O)NCc3cccc(C)c3)c(=O)n12 | inactive: -6.47% |  |
| COc1ccc(NC(=O)CCc2nnc3n(Cc4ccc(C)cc4)c(=O)c4ccccc4n23)cc1 | inactive: -17.2% |  |
| CCc1ccccc1NC(=O)Cn1ccn(Cc2ccccc2)c(=O)c1=O | inactive: -11.1% |  |
| CC1CCCCN1C(=O)CCS(=O)(=O)c1cc2c(cc1Cl)NC(=O)CO2 (stereo not drawn) | inactive: -5.26% |  |
| COc1cccc(CNCCCSc2nnnn2C)c1OC | inactive: 3.63% |  |
| CCS(=O)(=O)c1nc(S(=O)(=O)c2ccc(C)cc2)c(NC)s1 | inactive: -15.7% |  |
| Cc1cccc(C(=O)N2CCc3cc(CNS(=O)(=O)c4ccc(F)c(Cl)c4)ccc32)c1 | inactive: -10.3% |  |
| CC(=O)Nc1c(C)nn(-c2ccccc2)c1N1CCC(C(=O)Nc2ccccc2F)CC1 | inactive: 3.57% |  |
| O=C(Nc1ccccc1)N(Cc1cccc(Cl)c1)c1ccccn1 | inactive: -11.8% |  |
| CC(=O)c1ccc(N2CCN(C(=O)Nc3ccc(C(C)C)cc3)CC2)cc1 |  | active: 22.4 µM |
| Cn1c2ccccc2c2cnn(CC(=O)NCCCN3CCN(c4ccccc4F)CC3)c(=O)c21 | inactive: -6.02% |  |
| CCCCN1C[C@H](O)[C@@H](O)[C@H](O)[C@H]1CO | inactive: 2.73% |  |
| COc1ccc(NC(=O)c2ccco2)cc1NC(=O)c1c(OC)cccc1OC | inactive: 3.53% |  |
| CCOc1ccc(CN2C(=O)c3ccccc3C2C(=O)NCCc2ccc(OC)c(OC)c2)cc1 (stereo not drawn) | inactive: -3.79% |  |
| CCOC(=O)c1c(S(=O)(=O)N2CCC(C(=O)Nc3ccc(F)cc3F)CC2)c(C)n(C)c1C | inactive: -21.2% |  |
| COc1ccc(Cn2c(CO)cnc2SCc2ccccc2C)cc1 | inactive: 61.1% |  |
